Patent publication US4537924A, “Quadratic acid amide derivatives, their use as stabilizers, and synthetic resins treated therewith” (Chemische Werke Huels, AG, priority 1982, dated 1985)
For at least one compound, name, drawing or mass did not settle the structure.

Tests used:
Assay type in all cases: physicochemical
[1] = Volatility of pure compound by thermogravimetric determination; settings: heating-up rate 10° C./min; for Volatility: temperature at weight drop of 2%: weight drop 2%; for Volatility: temperature at weight drop of 50%: weight drop 50%; for Volatility: temperature at weight drop of 80%: weight drop 80%
Method: To test volatility, the quadratic acid bisamides or the synthetic resins treated therewith were subjected to thermogravimetric determination (cf. Tables 1 and 6). The heating-up rate was 10° C./min. A DuPont 950 Thermogravimetric Analyzer was applied.

[2] = Volatility (sublimation) of stabilizers from polyether esters; settings: from polyether ester; 195° C. and 0.1 mbar; 0.5% by weight
[3] = Extraction of stabilizers from polyamide 12 with boiling organic solvents; settings: 0.25% by weight stabilizer
Excerpt: (a) Polyamide 12 (Number Average Mol. Wt. 30,000: Producer: Chemische Werke Hus AG, D-4370 Marl)
In a pug mill, polyamide 12 granules were combined with quadratic acid bisamides, and the resultant mixture was homogenized in a twin screw extruder. The granulated material obtained in this way was then molded into panels having a thickness of 1 mm, and chips of 30×10 mm were then cut therefrom.
(§1) The solubility values in water and dilute acetic acid (Tables 2 and 3), as well as the extraction values (Tables 4 and 7) confirm the low migrating tendency of the compounds according to the present invention.

[4] = Extraction of stabilizers from polyether esters with boiling organic solvents; settings: from polyether ester
Excerpt: (b) Polyether Esters (Number Average Mol. Wt. 25,000)
Into a polyether ester melt based on terephthalic acid, 1,4-butanediol, and polytetrahydrofuran, 0.5% by weight of the respective quadratic acid amide was introduced. After processing into granules, the latter were used to make press-molded panels of a thickness of 1 mm, from which chips were cut of 30×10 mm.
as §1

SMILES	Volatility: temperature at weight drop of 2% [1]	Volatility: temperature at weight drop of 50% [1]	Volatility: temperature at weight drop of 80% [1]	Degree of sublimation after 24-hour treatment [2]	Degree of extraction after 8 hour treatment ([3]; boiling chloroform)	Degree of extraction after 8 hour treatment ([3]; boiling methanol)	Degree of extraction after 8-hour treatment ([4]; methanol (65° C.))	Degree of extraction after 8-hour treatment ([4]; toluene (110° C.))
CN1C(C)(C)CC(N=c2c(O)c(NC3CC(C)(C)N(C)C(C)(C)C3)c2=O)CC1(C)C [Example 8, 1,3-Bis[1,2,2,6,6-pentamethyl-4-piperidylamino]cyclobutenediylium-2,4-diolate]	350 °C	410 °C	425 °C					
CC1(C)CC(N(CCO)c2c([O-])c(=[N+](CCO)C3CC(C)(C)NC(C)(C)C3)c2=O)CC(C)(C)N1 [Example 7, 1,3-Bis[N-2-hydroxyethyl-N-(2,2,6,6-tetramethyl-4-piperidyl)amino]cyclobutenediylium-2,4-diolate]				4 % of Maximally Sublimable Quan				
CC1(C)CC(OCCCN=c2c(O)c(NCCCOC3CC(C)(C)NC(C)(C)C3)c2=O)CC(C)(C)N1 [Example 9, 1,3-Bis[2,2,6,6-tetramethyl-4-piperidyloxypropylamino]cyclobutenediylium-2,4-diolate]	310 °C	350 °C	400 °C					
CCCCN(CCCC)c1c([O-])c(=[N+](CCCC)CCCC)c1=O [D, 1,3-Bis(dibutylamino)cyclobutenediylium-2,4-diolate]	155 °C	215 °C	230 °C					
CCN(CC)c1c([O-])c(=[N+](CC)CC)c1=O [C, 1,3-Bis(diethylamino)cyclobutenediylium-2,4-diolate]	150 °C	210 °C	225 °C					
CC1(C)CC(N=c2c(O)c(NC3CC(C)(C)NC(C)(C)C3)c2=O)CC(C)(C)N1 [Example 1, 1,3-Bis[2,2,6,6-tetramethyl-4-piperidylamino]cyclobutenediylium-2,4-diolate]	350 °C	400 °C	420 °C	13 % of Maximally Sublimable Quan	9.6 % of Maximally Extractable Amo	22.2 % of Maximally Extractable Amo	12 % of Maximally Extractable Qua	5 % of Maximally Extractable Qua
C[C@@H]1CN(c2c([O-])c(=[N+]3C[C@@H](C)O[C@@H](C)C3)c2=O)C[C@H](C)O1 [E, 1,3-Bis(cis-2,6-dimethylmorpholino)cyclobutenediylium-2,4-diolate]	210 °C	260 °C	280 °C					
